According to PMC4466309:
No constants are given. Whether binding was seen depends on the method and setting. In cells and extracts the contact can be indirect. Some results given as binding are weak or reduced against the parent protein; the word gives no strength. Sequences can lack the tags named with a protein. Each block holds one binder with its values, some of them ahead of it.

Assays:
Flag-Strep (FS)-Hes1 = biological target: T1, Flag-Strep (FS)-Hes1 (UniProt P35428); test: co-IP; Dox-induced HEK293 lines (FS-Hey1, FS-Hey2, Flag-HeyL, FS-Hes1) transfected with eGFP constructs; anti-Flag M2 affinity gel, 4°C overnight; 20 mM Tris pH 7.8, 150 mM NaCl, 10% glycerol, 0.3% Triton-X100; Western blot with anti-Flag and anti-GFP
T1 sequence: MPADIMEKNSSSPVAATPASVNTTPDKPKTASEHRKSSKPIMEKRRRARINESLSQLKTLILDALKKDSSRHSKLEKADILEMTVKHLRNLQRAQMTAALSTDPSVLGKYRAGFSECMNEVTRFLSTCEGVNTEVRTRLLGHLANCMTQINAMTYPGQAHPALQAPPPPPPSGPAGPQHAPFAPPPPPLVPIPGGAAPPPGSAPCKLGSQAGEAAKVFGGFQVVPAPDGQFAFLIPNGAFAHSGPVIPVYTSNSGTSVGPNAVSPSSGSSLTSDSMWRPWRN

Flag-Strep (FS)-Hey1 = biological target: T2, Flag-Strep (FS)-Hey1 (UniProt Q9WV93); test: as above
T2 sequence: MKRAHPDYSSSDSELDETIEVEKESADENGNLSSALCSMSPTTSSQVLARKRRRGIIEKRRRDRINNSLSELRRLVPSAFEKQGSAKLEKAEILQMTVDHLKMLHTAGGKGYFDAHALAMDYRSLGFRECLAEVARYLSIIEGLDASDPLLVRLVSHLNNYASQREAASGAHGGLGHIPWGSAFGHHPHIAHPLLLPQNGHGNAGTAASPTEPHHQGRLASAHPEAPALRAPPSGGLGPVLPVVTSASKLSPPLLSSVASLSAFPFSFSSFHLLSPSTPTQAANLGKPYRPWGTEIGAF

Flag-HeyL = biological target: T3, Flag-HeyL (UniProt Q9DBX7); test: as above
T3 sequence: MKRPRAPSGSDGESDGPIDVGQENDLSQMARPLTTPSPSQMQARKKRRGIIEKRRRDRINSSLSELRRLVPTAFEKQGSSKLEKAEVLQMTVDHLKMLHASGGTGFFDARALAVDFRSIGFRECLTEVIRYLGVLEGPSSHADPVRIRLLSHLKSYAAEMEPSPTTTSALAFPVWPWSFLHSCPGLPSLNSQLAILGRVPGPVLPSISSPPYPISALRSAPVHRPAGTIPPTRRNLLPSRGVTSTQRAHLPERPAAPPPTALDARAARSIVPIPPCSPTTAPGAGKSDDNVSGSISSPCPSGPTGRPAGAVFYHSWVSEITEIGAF

Flag-Strep (FS)-Hey2 = biological target: T4, Flag-Strep (FS)-Hey2 (UniProt Q9QUS4); test: as above
T4 sequence: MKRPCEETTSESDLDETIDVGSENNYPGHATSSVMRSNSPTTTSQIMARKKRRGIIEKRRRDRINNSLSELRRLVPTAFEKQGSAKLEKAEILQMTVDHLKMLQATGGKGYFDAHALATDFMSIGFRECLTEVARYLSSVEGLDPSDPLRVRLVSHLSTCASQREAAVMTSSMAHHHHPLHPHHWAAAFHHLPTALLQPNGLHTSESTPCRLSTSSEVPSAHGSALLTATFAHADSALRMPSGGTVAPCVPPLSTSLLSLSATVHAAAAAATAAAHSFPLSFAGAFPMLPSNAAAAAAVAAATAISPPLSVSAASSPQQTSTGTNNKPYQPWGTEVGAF

Flag-FBXO45 (human) [1] = biological target: T5, Flag-FBXO45 (human) (UniProt P0C2W1); test: co-IP; HEK293T cells co-transfected with a Flag-tagged and an eGFP-fused protein; anti-Flag M2 affinity gel, 4°C overnight; 20 mM Tris pH 7.8, 150 mM NaCl, 10% glycerol, 0.3% Triton-X100; Western blot with anti-Flag and anti-GFP
T5 sequence: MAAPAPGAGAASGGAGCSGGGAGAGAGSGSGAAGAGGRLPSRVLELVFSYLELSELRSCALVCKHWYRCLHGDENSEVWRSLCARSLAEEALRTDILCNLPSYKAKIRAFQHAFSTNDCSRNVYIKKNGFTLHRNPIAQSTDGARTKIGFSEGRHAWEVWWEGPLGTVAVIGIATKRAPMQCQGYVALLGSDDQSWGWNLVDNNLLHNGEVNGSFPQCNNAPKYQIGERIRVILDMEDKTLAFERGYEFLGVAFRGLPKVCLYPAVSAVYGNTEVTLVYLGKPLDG

Flag-FBXO45 (human) [2] = biological target: T5, Flag-FBXO45 (human); test: co-IP; HEK293T cells transfected with Flag-FBXO45 and HA-Hey1 alone or together; immunoprecipitated with Flag or HA antibodies

B1: eGFP-FBXO45 (protein, UniProt P0C2W1 1-286)
chain: T5 sequence
binding (Flag-Strep (FS)-Hes1): no binding
binding (Flag-Strep (FS)-Hey1): binds
binding (Flag-HeyL): binds
binding (Flag-Strep (FS)-Hey2): binds

B3: eGFP-FBXO45ΔF (domain or fragment, UniProt P0C2W1 83-286)
chain: CARSLAEEALRTDILCNLPSYKAKIRAFQHAFSTNDCSRNVYIKKNGFTLHRNPIAQSTDGARTKIGFSEGRHAWEVWWEGPLGTVAVIGIATKRAPMQCQGYVALLGSDDQSWGWNLVDNNLLHNGEVNGSFPQCNNAPKYQIGERIRVILDMEDKTLAFERGYEFLGVAFRGLPKVCLYPAVSAVYGNTEVTLVYLGKPLDG
binding (Flag-Strep (FS)-Hey1): binds

B4: HA-Hey1 (protein, UniProt Q9WV93 1-299)
chain: T2 sequence
binding (Flag-FBXO45 (human) [2]): binds

Now from value to binder:

binding (Flag-FBXO45 (human) [1]): binds
B2: eGFP-Hey1 1–286 (domain or fragment, UniProt Q9WV93 1-286)
chain: MKRAHPDYSSSDSELDETIEVEKESADENGNLSSALCSMSPTTSSQVLARKRRRGIIEKRRRDRINNSLSELRRLVPSAFEKQGSAKLEKAEILQMTVDHLKMLHTAGGKGYFDAHALAMDYRSLGFRECLAEVARYLSIIEGLDASDPLLVRLVSHLNNYASQREAASGAHGGLGHIPWGSAFGHHPHIAHPLLLPQNGHGNAGTAASPTEPHHQGRLASAHPEAPALRAPPSGGLGPVLPVVTSASKLSPPLLSSVASLSAFPFSFSSFHLLSPSTPTQAANLG

binding (Flag-FBXO45 (human) [1]): no binding
B5: eGFP-Hey1 ΔbHLH-O (domain or fragment, UniProt Q9WV93 159-299)
chain: NNYASQREAASGAHGGLGHIPWGSAFGHHPHIAHPLLLPQNGHGNAGTAASPTEPHHQGRLASAHPEAPALRAPPSGGLGPVLPVVTSASKLSPPLLSSVASLSAFPFSFSSFHLLSPSTPTQAANLGKPYRPWGTEIGAF
